Laboratory results reported in the supplement of paper PMC4604168 (melanoma cell lines).
The other results are listed elsewhere or left out. Single values are uncertain, as repeats are few or missing.

Experiments:
Assay in all cases: cell count relative to DMSO control; melanoma cells; higher = more viable cells
Conditions in all cases: library dose: low library concentration; 72 h
WM115 = system: WM115
WM1716 = system: WM1716
WM1745 = system: WM1745
WM3526 = system: WM3526
WM3619 = system: WM3619
WM451Lu = system: WM451Lu
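Note: cell number obtained by counting DAPI-stained nuclei in high-throughput microscope images with image analysis software, screen run in 1,536-well plates.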

Compound: Cn1cc(C2=C(c3cn(C4CCN(Cc5ccccn5)CC4)c4ccccc34)C(=O)NC2=O)c2ccccc21 [Enzastaurin] + C[C@@H]1CCN(C(=O)CC#N)C[C@@H]1N(C)c1ncnc2[nH]ccc12 [CP690550] (first compound 0.8 µM, partner dose 1 µM)
- cell count (WM115): 122%
- cell count (WM1716): 111%
- cell count (WM1745): 102%
- cell count (WM3526): 93.3%
- cell count (WM3619): 105%
- cell count (WM451Lu): 146%

Compound: Cn1cc(C2=C(c3cn(C4CCN(Cc5ccccn5)CC4)c4ccccc34)C(=O)NC2=O)c2ccccc21 [Enzastaurin] + OCCn1cc(-c2cnc3nnn(Cc4ccc5ncccc5c4)c3n2)cn1 [PF04217903] (first compound 0.8 µM, partner dose 1 µM)
- cell count (WM115): 112%
- cell count (WM1716): 98.3%
- cell count (WM1745): 93.1%
- cell count (WM3526): 116%
- cell count (WM3619): 123%
- cell count (WM451Lu): 113%

Compound: C[As](C)SC[C@H](NC(=O)CC[C@H](N)C(=O)O)C(=O)NCC(=O)O [Darinaparsin] + Cc1cc(N2CCOCC2)cc2[nH]c(-c3c(NC[C@@H](O)c4cccc(Cl)c4)cc[nH]c3=O)nc12 [BMS536924] (first compound 0.4 µM, partner dose 0.2 µM)
- cell count (WM115): 94.9%
- cell count (WM1716): 99.7%
- cell count (WM1745): 83.2%
- cell count (WM3526): 87.6%
- cell count (WM3619): 93.7%
- cell count (WM451Lu): 87.7%

Compound: Cn1cc(C2=C(c3cn(C4CCN(Cc5ccccn5)CC4)c4ccccc34)C(=O)NC2=O)c2ccccc21 [Enzastaurin] + O=C1NC(=O)/C(=C/c2ccc(-c3ccc(F)cc3O)o2)S1 [AS252424] (first compound 0.8 µM, partner dose 1 µM)
- cell count (WM115): 107%
- cell count (WM1716): 99.3%
- cell count (WM1745): 96.8%
- cell count (WM3526): 91.4%
- cell count (WM3619): 116%
- cell count (WM451Lu): 101%

Compound: Cn1cc(C2=C(c3cn(C4CCN(Cc5ccccn5)CC4)c4ccccc34)C(=O)NC2=O)c2ccccc21 [Enzastaurin] + O=c1cc(-c2cccc3c2Sc2ccccc2S3)oc(N2CCOCC2)c1 [KU55933] (first compound 0.8 µM, partner dose 1 µM)
- cell count (WM115): 116%
- cell count (WM1716): 100%
- cell count (WM1745): 75.6%
- cell count (WM3526): 108%
- cell count (WM3619): 104%
- cell count (WM451Lu): 129%

Compound: N.N.[Cl][Pt][Cl] [cisplatin] + CCc1ccc(CCOc2ccc(CC3SC(=O)NC3=O)cc2)nc1 [pioglitazone] (first compound 1.6 µM, partner dose 2 µM)
- cell count (WM115): 95.4%
- cell count (WM1716): 79.1%
- cell count (WM1745): 97.6%
- cell count (WM3526): 78.9%
- cell count (WM3619): 102%
- cell count (WM451Lu): 85.7%

Compound: C[C@]12O[C@H](C[C@]1(O)CO)n1c3ccccc3c3c4c(c5c6ccccc6n2c5c31)CNC4=O [Lestaurtinib] + Cn1cncc1[C@@](N)(c1ccc(Cl)cc1)c1ccc2c(c1)c(-c1cccc(Cl)c1)cc(=O)n2C [tipifarnib] (first compound 0.004 µM, partner dose 0.01 µM)
- cell count (WM115): 84.3%
- cell count (WM1716): 80.3%
- cell count (WM1745): 94.3%
- cell count (WM3526): 85.5%
- cell count (WM3619): 88.8%
- cell count (WM451Lu): 98.8%

Compound: Cn1cc(C2=C(c3cn(C4CCN(Cc5ccccn5)CC4)c4ccccc34)C(=O)NC2=O)c2ccccc21 [Enzastaurin] + C[C@]12O[C@H](C[C@]1(O)CO)n1c3ccccc3c3c4c(c5c6ccccc6n2c5c31)CNC4=O [Lestaurtinib] (first compound 0.8 µM, partner dose 0.004 µM)
- cell count (WM115): 95.5%
- cell count (WM1716): 96.1%
- cell count (WM1745): 78.9%
- cell count (WM3526): 86.6%
- cell count (WM3619): 97.8%
- cell count (WM451Lu): 103%

Compound: Cn1cc(C2=C(c3cn(C4CCN(Cc5ccccn5)CC4)c4ccccc34)C(=O)NC2=O)c2ccccc21 [Enzastaurin] + Cn1c(Nc2ccc(C(F)(F)F)cc2)nc2cc(Oc3ccnc(-c4ncc(C(F)(F)F)[nH]4)c3)ccc21 [CHIR265] (first compound 0.8 µM, partner dose 0.08 µM)
- cell count (WM115): 68.1%
- cell count (WM1716): 85.1%
- cell count (WM1745): 67.9%
- cell count (WM3526): 71.6%
- cell count (WM3619): 78.4%
- cell count (WM451Lu): 111%

Compound: C[C@]12O[C@H](C[C@]1(O)CO)n1c3ccccc3c3c4c(c5c6ccccc6n2c5c31)CNC4=O [Lestaurtinib] + CC(=O)c1c(C)c2cnc(Nc3ccc(N4CCNCC4)cn3)nc2n(C2CCCC2)c1=O [palbociclib] (first compound 0.004 µM, partner dose 0.04 µM)
- cell count (WM115): 89.1%
- cell count (WM1716): 77.3%
- cell count (WM1745): 89.6%
- cell count (WM3526): 83.5%
- cell count (WM3619): 80.4%
- cell count (WM451Lu): 87.2%

Compound: C[As](C)SC[C@H](NC(=O)CC[C@H](N)C(=O)O)C(=O)NCC(=O)O [Darinaparsin] + c1cc(-c2cnn3cc(-c4ccc(OCCN5CCCCC5)cc4)cnc23)ccn1 [Dorsomorphin] (first compound 0.4 µM, partner dose 0.4 µM)
- cell count (WM115): 104%
- cell count (WM1716): 93.5%
- cell count (WM1745): 75.3%
- cell count (WM3526): 90.3%
- cell count (WM3619): 92.3%
- cell count (WM451Lu): 100%
